Here are results for 55 compounds from ChEMBL document CHEMBL4888484, “Replenishing the malaria drug discovery pipeline: Screening and hit evaluation of the MMV Hit Generation Library 1 (HGL1) against asexual blood stage Plasmodium falciparum ,using a nano luciferase reporter read-out” (2022).

Several values for one entry are separate records, joined by “and”; a condition that tells them apart may be missing. Equal entries are not always repeated. In all, about 150,000 compounds went through this assay and about 540 (0.36%) showed an effect of 50% or more. Some of the results follow.

In the experiment the test system is Plasmodium falciparum. Briefly: Primary screen in NF54 nanoGlo assay, in single point, at 2uM, 72h; a lower Z score goes with more inhibition. In kind it is functional, Erythrocyte. The conditions noted are these: timepoint 72 hour.

What is called % Inhibition is the relative decrease from the control value, in per cent.

For `CC(C)[C@H](NC(=O)C(F)(F)F)c1nc(C2CCCO2)no1` (some centres undefined), the “% Inhibition” value is recorded as 4% and the Z score is -0.48.

As for `O=C(NCc1cc(F)cc(F)c1)C1=CCC1`, the “% Inhibition” value is given as -12% and the Z score is listed as 1.44.

Take `CC(C)CCN(Cc1nnnn1C1CC1)C1CC1`: the “% Inhibition” value was -7% and the Z score was 0.69.

For `COCCc1noc(CNC(=O)c2cc(=O)c3cccc(F)c3[nH]2)n1`, the “% Inhibition” value is -6% and the Z score is on record as 0.7.

Turning to `O=C(CS(=O)(=O)C[C@H]1CCCO1)NCCc1ccc(F)cc1`, the “% Inhibition” value is recorded as -5% and the Z score was found to be 0.93.

As for `CC(C)Cc1nc(Cc2ccccn2)n(-c2ccccn2)n1`, the “% Inhibition” value came to 9% and the Z score is recorded as -1.24.

Take `CCN(CC)C(=O)c1ccc([C@@H](O)C(Cl)(Cl)Cl)o1`: the “% Inhibition” value is -17% and the Z score is on record as 2.27.

Consider `COCCCCC(=O)Nc1cccc(F)c1C`, for which the “% Inhibition” value is on record as -10% and the Z score amounted to 1.46.

Consider `Cc1ccc(C)c(NC(=O)c2ccccc2OC[C@H]2CCCO2)c1`, for which the “% Inhibition” value is given as -9% and the Z score was 1.

For `NC(=O)CCn1ccc(NC(=O)[C@H]2CCCOC2)n1`, the “% Inhibition” value is listed as -13% and the Z score came out at 1.78.

In the case of `Cc1cc(=O)c2c(n1Cc1ccccc1)CC(C)(C)CC2=O`, the “% Inhibition” value is given as -6% and the Z score is reported as 1.13.

Regarding `Cc1nnc(CC(=O)N2CCCNC(=O)[C@@H]2CC(C)C)o1`, the “% Inhibition” value is on record as -4% and the Z score is 0.46.

Take `COc1cc(=O)n(Cc2cn3cccnc3n2)cc1Br`: the “% Inhibition” value is -14% and the Z score came to 1.38.

For `Cc1nc(Cn2nnc(NC(=O)c3ccsc3)c2C)no1`, the “% Inhibition” value is on record as -9% and the Z score is on record as 1.07.

`CNC[C@H]1CCN(C(=O)c2sc3cc(C(F)(F)F)ccc3c2Cl)C1`: the “% Inhibition” value came out at 5% and the Z score was -0.65.

As to `O=C1CCC(c2ccccc2)(c2ccccc2)CN1C[C@H]1CCS(=O)(=O)C1`, the “% Inhibition” value is reported as -10% and the Z score stood at 1.98.

In the case of `CCN(CCN1CCCC1)S(=O)(=O)Cc1cccc(C)c1`, the “% Inhibition” value is listed as -3% and the Z score was 0.65.

Turning to `CCn1cc(Br)c(CNC)n1`, the “% Inhibition” value is listed as -30% and the Z score came to 3.56.

With `O=C(CN1C(=O)NC2(CCCC2)C1=O)c1cc2ccccc2o1`, the “% Inhibition” value was -1% and the Z score was determined as 0.13.

In the case of `CN(Cc1ccc(N2CCCC2)cc1)C(=O)C1CCN(c2cnc3nccnc3c2)CC1`, the “% Inhibition” value is -4% and the Z score stood at 0.68.

`COc1ccc(NC(=O)c2ccc(N[C@@H](C)C(=O)N3CCCC3)cc2)cc1`: the “% Inhibition” value is on record as 4% and the Z score is -0.79.

Take `Brc1ccc(-c2nc3n(n2)CCCCC3)cc1`: the “% Inhibition” value came to 30% and the Z score was -3.83.

Take `Cn1cccc1C(=O)N1CCOc2ccc(C(=O)N3CCCC3)cc2C1`: the “% Inhibition” value is -3% and the Z score is 0.41.

On to `COc1ccccc1NC(=O)N1CCCn2nc(C)cc21`, for which the “% Inhibition” value was -10% and the Z score is reported as 1.29.

For `c1ccn2ncc(-c3ccc4c(c3)OCCO4)c2c1`, the “% Inhibition” value is 0% and the Z score is listed as -0.04.

On to `CCN(CC)S(=O)(=O)N[C@H](c1cnn(C)c1)C1CC(O)C1` (some centres undefined), for which the “% Inhibition” value was found to be 7% and the Z score is reported as -0.85.

On to `CC[C@@H]1NC(=O)c2ccc(OC)c(c2)OCCCn2cc(nn2)CNC(=O)[C@H](Cc2ccccc2)NC1=O`, for which the “% Inhibition” value is listed as -6% and the Z score stood at 1.05.

For the compound `Cc1cccc(-c2ncc(C(=O)NCCN3CCOC3=O)c(O)n2)c1`, the “% Inhibition” value worked out at 2% and the Z score was -0.29.

`COc1cc(CNC(C)C)cc(Br)c1OCC#N`: for the setting “2 µM”, the “% Inhibition” value was -4% and -3%; the Z score is 0.43 and 0.41.

As to `CN1CCC(CNC(=O)Nc2ccc3c(c2)N(C)CC3)(N2CCCCC2)CC1`, the “% Inhibition” value was -17% and the Z score was determined as 1.54.

As to `O=c1cnc2cc(Br)cnc2[nH]1`, the “% Inhibition” value is recorded as -8% and the Z score is on record as 1.27.

As to `CN([C@@]1(C#N)CCOC1)S(=O)(=O)c1cccc2nsnc12`, the “% Inhibition” value is given as -8% and the Z score turned out to be 0.68.

On to `C[C@H](NC(=O)N1CCC(c2ccc3cccnc3n2)CC1)c1nccs1`, for which the “% Inhibition” value is reported as -13% and the Z score was 1.94.

For the compound `CCOCCC1(C(=O)NCc2cn([C@H]3CCOC3)nn2)CCCC1`, the “% Inhibition” value was -4% and the Z score amounted to 0.89.

Turning to `Cc1cc(C(=O)N[C@@]2(C#N)CC2(C)C)cc(C)c1F`, the “% Inhibition” value is reported as -11% and the Z score turned out to be 1.83.

In the case of `CC1CCC2(CC1)C[C@H](C)c1ccccc1CN2` (some centres undefined), the “% Inhibition” value (2 µM) is 2% and -14% and 1%.

For `Cc1cc(-c2cccc(Cl)c2)ccc1NC(=O)N1CC(CO)C1`, the “% Inhibition” value is -4% and the Z score is 0.42.

Regarding `CCc1ccccc1CN1CCC[C@@]2(CCN(C(=O)c3ccco3)C2)C1`, the “% Inhibition” value is given as -4% and the Z score amounted to 0.49.

Turning to `CCc1nc2cc(N3CCC(C(=O)NCc4cc(F)cc(F)c4)CC3)cnc2nc1CC`, the “% Inhibition” value is given as -5% and the Z score turned out to be 0.82.

Take `CO[C@H]1CN(c2nccc(C3CCCC3)n2)CC[C@H]1N`: the “% Inhibition” value is recorded as -14% and the Z score is reported as 1.55.

Take `Cc1cccc(-c2nnc(C)c(N3CCN(C)CC3)n2)c1`: the “% Inhibition” value was determined as 0% and the Z score worked out at 0.1.

On to `Cc1n[nH]cc1CN(C)S(=O)(=O)c1cc(-c2cc(C(F)(F)F)on2)oc1C`, for which the “% Inhibition” value is on record as -10% and the Z score stood at 1.93.

`O=C(Nc1nncs1)c1ccc2c(c1)CCCC2`: the “% Inhibition” value is recorded as -4% and the Z score is 0.56.

`CC(C)CC1(C(=O)N[C@H]2CCN(c3cc(=O)n(C)c(=O)[nH]3)C2)CCC1`: the “% Inhibition” value is recorded as -14% and the Z score was 2.42.

On to `O=C(c1cscn1)N1CCC[C@H](c2nccn2Cc2cccnc2)C1`, for which the “% Inhibition” value is on record as -10% and the Z score is on record as 1.45.

As for `CC12CCC(C(=O)N3CCN(Cc4ccc5c(c4)OCO5)CC3)(CC1=O)C2(C)C` (centres undefined), the “% Inhibition” value is reported as 0% and the Z score came to 0.04.

For `Cc1ccc(-c2nn(Cn3cc(Cl)cn3)c(-c3ccc(C)c(C)c3)c2Br)cc1C`, the “% Inhibition” value is given as -13% and the Z score was 1.49.

`CCC(=O)N1CC[C@H](NC(=O)Nc2cc(C)cc(N3CCN(C)CC3)c2)C1`: the “% Inhibition” value is reported as 16% and the Z score is -2.07.

In the case of `CC(=O)N1CCC(C(=O)OCc2ccc(-c3c[nH]cn3)cc2)CC1`, the “% Inhibition” value is given as 11% and the Z score was -2.08.

Regarding `Cc1cc([C@H](C)NCCCNS(C)(=O)=O)cc(C)c1F`, the “% Inhibition” value is on record as -3% and the Z score is 0.3.

Turning to `CC(C)(C)n1ncnc1CNC(=O)NCc1ccc(C2CC2)cc1`, the “% Inhibition” value is recorded as -4% and the Z score is given as 0.69.

As for `CC(C)C(NS(=O)(=O)c1ccccc1F)C(=O)NCC1COc2ccccc2O1` (centres undefined), the “% Inhibition” value stood at 3% and the Z score is on record as -0.34.

As to `CCCC1CCCCC1NC(=O)COC` (centres undefined), the “% Inhibition” value is given as -1% and the Z score is 0.1.

With `Cn1c(=O)c2[nH]c(N3CCN(C(=O)c4ccccc4F)CC3)nc2n(C)c1=O`, the “% Inhibition” value is reported as -6% and the Z score came to 1.16.

`Cc1cnc(-c2ccncc2)n1CC1CN(C(=O)c2ccnn2C)C1`: the “% Inhibition” value was 2% and the Z score is reported as -0.2.
